Results on 41 compounds are retold here after publication PMC6664820, “Novel natural and synthetic inhibitors of solute carriers SGLT1 and SGLT2” (Pharmacology Research & Perspectives, 2019).

Each structure is given as a SMILES string. The campaign covered roughly 1,900 compounds. About 40 (2%) showed an effect of 50% or more. Some of the results follow.

The target of this assay is human SGLT1 (hSGLT1) (human, UniProt P13866). Kind of assay: primary screen, percent of control activity; higher = less effect of the substance. Also on record: single well. Particulars: 50 µM. A digest of the protocol: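 Single-point screen at 50 µmol/L in CHO-hSGLT1 cells, with 160 µmol/L 1-NBD-glucose in glucose-free DMEM for 90 min at 37°C. Fluorescence from isopropanol extracts was calibrated, and CHO wild-type uptake was subtracted. Data are percent of uptake without compound.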
Sequence of human SGLT1 (hSGLT1) (P13866 whole entry, looked up): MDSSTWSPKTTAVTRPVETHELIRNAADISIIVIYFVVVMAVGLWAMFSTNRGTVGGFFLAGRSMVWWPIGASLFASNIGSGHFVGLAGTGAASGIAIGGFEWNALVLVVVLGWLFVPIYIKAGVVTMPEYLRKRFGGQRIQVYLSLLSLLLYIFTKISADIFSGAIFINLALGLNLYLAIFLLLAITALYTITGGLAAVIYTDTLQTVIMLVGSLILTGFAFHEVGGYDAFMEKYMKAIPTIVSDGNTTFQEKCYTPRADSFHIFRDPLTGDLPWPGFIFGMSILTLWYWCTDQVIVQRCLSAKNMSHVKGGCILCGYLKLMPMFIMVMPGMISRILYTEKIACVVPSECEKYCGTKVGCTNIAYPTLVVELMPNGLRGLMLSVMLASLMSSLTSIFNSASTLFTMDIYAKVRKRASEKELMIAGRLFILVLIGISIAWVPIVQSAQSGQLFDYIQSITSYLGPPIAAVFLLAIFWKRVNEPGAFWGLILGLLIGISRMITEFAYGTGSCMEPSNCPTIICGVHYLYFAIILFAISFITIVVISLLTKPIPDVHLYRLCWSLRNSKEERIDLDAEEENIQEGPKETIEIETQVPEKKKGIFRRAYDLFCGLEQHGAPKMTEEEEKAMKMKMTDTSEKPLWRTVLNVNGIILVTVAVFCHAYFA
`Cc1ccc(C(C)C)c(O)c1C(=O)O`: the “NORMALIZED SGLT1 ACTIVITY (%)” value is 174%.

With `CC(=O)Oc1ccc2c(c1C(C)C)CCC1C(C)(C)CCC[C@]21C` (some centres unmarked), the “NORMALIZED SGLT1 ACTIVITY (%)” value is listed as 116%.

In the case of `CC(C)/C(O)=C1/C(=O)O[C@@H](c2ccoc2)[C@]2(C)C(O)[C@@H](O)[C@@]34OC5(C)OC67CC(C)(C(O)[C@]6(O)[C@@H](O)[C@]3(O5)C12)[C@H](CC(=O)O)[C@]74C` (some centres unmarked), the “NORMALIZED SGLT1 ACTIVITY (%)” value was 89%.

`C[C@@H]1CC[C@@]23CCC4(C)[C@@](C=CC5[C@@]6(C)CC[C@H](O)C(C)(C)C6CC[C@]54C)(OC2=O)C3[C@H]1C` (some centres unmarked): the “NORMALIZED SGLT1 ACTIVITY (%)” value worked out at 106%.

As for `CC1(C)O[C@@H]2C[C@H]3[C@@H]4CCC5=CC(=O)C=C[C@]5(C)[C@@]4(F)[C@@H](O)C[C@]3(C)[C@]2(C(=O)CO)O1`, the “NORMALIZED SGLT1 ACTIVITY (%)” value is listed as 156%.

With `COC(=O)C[C@H]1C(C)(C)[C@H](O)[C@@H]2CC3=C4CC(O)O[C@@H](c5ccoc5)[C@]4(C)CCC3[C@@]1(C)C2=O` (some centres unmarked), the “NORMALIZED SGLT1 ACTIVITY (%)” value came to 120%.

With `O=C(Nc1ccc([N+](=O)[O-])cc1Cl)c1cc(Cl)ccc1O`, the “NORMALIZED SGLT1 ACTIVITY (%)” value is given as 186%.

Consider `CNC(=O)Oc1ccc2c(c1)[C@]1(C)CCN(C)[C@@H]1N2C`, for which the “NORMALIZED SGLT1 ACTIVITY (%)” value came out at 86%.

As for `COc1cc(NC(C)CCCN)c2ncccc2c1.O=P(O)(O)O.O=P(O)(O)O` (centres unmarked), the “NORMALIZED SGLT1 ACTIVITY (%)” value amounted to 128%.

Take `C[C@H](CCC(=O)O)[C@H]1CC[C@H]2[C@@H]3CC[C@@H]4C[C@H](O)CC[C@]4(C)[C@H]3C[C@H](O)[C@]12C`: the “NORMALIZED SGLT1 ACTIVITY (%)” value is 114%.

For the compound `N[C@@H](C(=O)N[C@@H]1C(=O)N2C(C(=O)O)=C(Cl)CS[C@H]12)c1ccccc1`, the “NORMALIZED SGLT1 ACTIVITY (%)” value worked out at 139%.

Consider `O=c1cc(-c2ccc(O)cc2)oc2cc(O[C@@H]3O[C@H](CO)[C@@H](O)[C@H](O)[C@H]3O)cc(O)c12`, for which the “NORMALIZED SGLT1 ACTIVITY (%)” value came out at 83%.

With `CN(C)C(=O)Nc1ccc(Cl)c(Cl)c1`, the “NORMALIZED SGLT1 ACTIVITY (%)” value worked out at 127%.

Turning to `COc1c(O)cccc1O`, the “NORMALIZED SGLT1 ACTIVITY (%)” value is given as 108%.

Consider `Cc1cc(-c2ccccc2)nnc1NCCN1CCOCC1.Cl.Cl`, for which the “NORMALIZED SGLT1 ACTIVITY (%)” value stood at 141%.

Consider `CCC(C)C(=O)O[C@H]1[C@H](O)C2C(CN3CC(C)CCC3[C@@]2(C)O)C2C[C@]34O[C@]5(O)C(OC(=O)C(C)(O)C(C)O)CC[C@@]3(C)C5C(OC(C)=O)[C@@H](OC(C)=O)C4[C@@]21O` (some centres unmarked), for which the “NORMALIZED SGLT1 ACTIVITY (%)” value is recorded as 121%.

For `CC(CCC(=O)O)[C@H]1CCC2C3CC[C@@H]4C[C@H](O)CC[C@]4(C)C3C=C[C@@]21C` (some centres unmarked), the “NORMALIZED SGLT1 ACTIVITY (%)” value stood at 463%.

Take `CCOC(=O)n1ccn(C)c1=S`: the “NORMALIZED SGLT1 ACTIVITY (%)” value is 146%.

In the case of `CN1CCC[C@H]1c1cccnc1.O=C(O)C(O)C(O)C(=O)O.O=C(O)C(O)C(O)C(=O)O`, the “NORMALIZED SGLT1 ACTIVITY (%)” value was determined as 148%.

With `COc1ccc(C(C)=O)c(O)c1`, the “NORMALIZED SGLT1 ACTIVITY (%)” value is 128%.

In the case of `C[C@H](N)[C@H](O)c1cccc(O)c1.O=C(O)[C@H](O)[C@@H](O)C(=O)O`, the “NORMALIZED SGLT1 ACTIVITY (%)” value turned out to be 89%.

On to `CO/N=C(\C(=O)N[C@@H]1C(=O)N2C(C(=O)O)=C(COC(N)=O)CS[C@H]12)c1ccco1`, for which the “NORMALIZED SGLT1 ACTIVITY (%)” value is 92%.

On to `C[C@@H](N)[C@@H](O)c1ccccc1`, for which the “NORMALIZED SGLT1 ACTIVITY (%)” value stood at 142%.

As to `CCC(=O)c1c(O)cc(O)cc1O`, the “NORMALIZED SGLT1 ACTIVITY (%)” value was found to be 167%.

Regarding `C/C=C(/C)C(=O)O[C@H]1CC[C@@]2(C)[C@@H]3CC[C@H]4[C@]5(O)C[C@H](O)[C@@]6(O)[C@@H](CN7C[C@@H](C)CC[C@H]7[C@@]6(C)O)[C@]5(O)C[C@@]42O[C@]13O.O=S(=O)(O)O`, the “NORMALIZED SGLT1 ACTIVITY (%)” value turned out to be 138%.

Consider `NC1C[C@H]1c1ccccc1.O=S(=O)(O)O` (some centres unmarked), for which the “NORMALIZED SGLT1 ACTIVITY (%)” value is reported as 92%.

Turning to `NCCc1ccc(O)cc1`, the “NORMALIZED SGLT1 ACTIVITY (%)” value came to 93%.

As for `NC(COCc1ccccc1)C(=O)O` (centres unmarked), the “NORMALIZED SGLT1 ACTIVITY (%)” value came out at 95%.

`COC(=O)C[C@H]1C2(C)CC34OC5(C)O[C@@]6([C@H](OC(C)=O)C(OC(C)=O)[C@]7(C)C(/C(=C(/O)C(C)C)C(=O)O[C@H]7c7ccoc7)[C@@]6(O5)[C@H](OC(C)=O)[C@@]3(O)C2OC(=O)C(C)C)[C@]14C` (some centres unmarked): the “NORMALIZED SGLT1 ACTIVITY (%)” value amounted to 155%.

As to `CC1(C)C2CC[C@]3(C)C(C(=O)C=C4[C@H]5C[C@@](C)(C(=O)O)CC[C@]5(C)CC[C@]43C)[C@@]2(C)CC[C@@H]1O` (some centres unmarked), the “NORMALIZED SGLT1 ACTIVITY (%)” value is 148%.

Take `Cc1cc(O)c2c(c1O)C(=O)c1c(O)cc(C)c(O)c1C2=O`: the “NORMALIZED SGLT1 ACTIVITY (%)” value is reported as 127%.

In the case of `CN[C@@H](C)[C@@H](O)c1ccccc1.Cl`, the “NORMALIZED SGLT1 ACTIVITY (%)” value turned out to be 120%.

Consider `C=C(C)C1CNC(C(=O)O)C1CC(=O)O` (centres unmarked), for which the “NORMALIZED SGLT1 ACTIVITY (%)” value is on record as 112%.

As for `CC1(C)CC[C@]2(C(=O)O)CC[C@]3(C)C(=CC[C@@H]4[C@@]5(C)CC[C@H](O)[C@@](C)(CO)[C@@H]5CC[C@]43C)[C@@H]2C1`, the “NORMALIZED SGLT1 ACTIVITY (%)” value amounted to 248%.

Consider `CC1(C)C=Cc2c(cc3occ(-c4ccc5c(c4)OCO5)c(=O)c3c2O)O1`, for which the “NORMALIZED SGLT1 ACTIVITY (%)” value is recorded as 100%.

Regarding `CN(C)CCCN1c2ccccc2Sc2ccccc21.Cl`, the “NORMALIZED SGLT1 ACTIVITY (%)” value worked out at 38%.

Take `CCC(C)C(=O)O[C@H]1[C@H](O)C2C(CN3CC(C)CCC3[C@@]2(C)O)C2C[C@]34O[C@]5(O)C(OC(=O)C(C)(O)CC)CC[C@@]3(C)C5C(OC(C)=O)[C@@H](OC(C)=O)C4[C@@]21O` (some centres unmarked): the “NORMALIZED SGLT1 ACTIVITY (%)” value is 114%.

On to `C=CC(N)CCC(=O)O` (centres unmarked), for which the “NORMALIZED SGLT1 ACTIVITY (%)” value is recorded as 105%.

Turning to `O=C(O)c1cc2cc(F)ccc2[nH]1`, the “NORMALIZED SGLT1 ACTIVITY (%)” value came out at 103%.

Turning to `O=C1OCCN1/N=C/c1ccc([N+](=O)[O-])o1`, the “NORMALIZED SGLT1 ACTIVITY (%)” value was 123%.

As for `Cl.c1ccc2c(c1)CCCC2C1=NCCN1` (centres unmarked), the “NORMALIZED SGLT1 ACTIVITY (%)” value came out at 98%.
